The record followed here is the GPR68 mutational scans of Howard et al. (2025).

Scores whose standard error is large were omitted. Two further conditions of the source, in which the scores hardly spread, are not listed. Names with del lack the residues named; names with ins carry added residues between the positions named. For some assays here: The data file names ogerin without a concentration.

B1: GPR68, Q15743 (parent)
chain: MGNITADNSSMSCTIDHTIHQTLAPVVYVTVLVVGFPANCLSLYFGYLQIKARNELGVYLCNLTVADLFYICSLPFWLQYVLQHDNWSHGDLSCQVCGILLYENIYISVGFLCCISVDRYLAVAHPFRFHQFRTLKAAVGVSVVIWAKELLTSIYFLMHEEVIEDENQHRVCFEHYPIQAWQRAINYYRFLVGFLFPICLLLASYQGILRAVRRSHGTQKSRKDQIQRLVLSTVVIFLACFLPYHVLLLVRSVWEASCDFAKGVFNAYHFSLLLTSFNCVADPVLYCFVSETTHRDLARLRGACLAFLTCSRTGRAREAYPLGAPEASGKSGAQGEEPELLTKLHPAFQTPNSPGSGGFPTGRLA

The variants in data set [1] derive from B1. Briefly: cAMP reporter score (Enrich2 score, wild type = 0); higher = more signal; HEK293T, FACS bins.
Data set [2] covers variants of B1. The experiment in a line: surface expression score (Enrich2 score, wild type = 0); higher = more signal; HEK293T, FACS bins.

As to L23del, the cAMP reporter score in data set [1] (pH 5.5) is -1.73; in data set [1] (pH 6) it was -1.26; in data set [1] (pH 6, modulator: ogerin) it was -1.5; in data set [1] (pH 6.5, modulator: ogerin), -1.76. The surface expression score in data set [2] is -3.09.

As to T18del, the cAMP reporter score is -1.8 in data set [1] (pH 5.5); -0.791 in data set [1] (pH 6); -1.91 in data set [1] (pH 6, modulator: ogerin); -1.5 in data set [1] (pH 6.5, modulator: ogerin). For the same variant, in data set [2], the surface expression score is -0.502.

Take V31_L32insG: the cAMP reporter score was -1.22 in data set [1] (pH 5.5); -0.475 in data set [1] (pH 6); -0.663 in data set [1] (pH 6.5, modulator: ogerin). Also, in data set [2], the surface expression score was -1.12.

For the variant H20F, the cAMP reporter score in data set [1] (pH 5.5) was 0.197; in data set [1] (pH 6), 0.012; in data set [1] (pH 6, modulator: ogerin) it was -0.893; in data set [1] (pH 6.5, modulator: ogerin), -0.67. The surface expression score in data set [2] came out at 1.93.

Turning to H20E, the cAMP reporter score was -0.989 in data set [1] (pH 5.5); -0.477 in data set [1] (pH 6); -1.19 in data set [1] (pH 6, modulator: ogerin); -1.24 in data set [1] (pH 6.5, modulator: ogerin). Moreover, in data set [2], the surface expression score was -0.895.

As for H20T, the cAMP reporter score in data set [1] (pH 5.5) was -0.883; in data set [1] (pH 6) it was -0.014; in data set [1] (pH 6, modulator: ogerin) it was -0.261; in data set [1] (pH 6.5, modulator: ogerin), -0.453. The surface expression score in data set [2] is -1.12.

As to H20R, the cAMP reporter score in data set [1] (pH 5.5) is 0.781; in data set [1] (pH 6, modulator: ogerin) it was 1.9; in data set [1] (pH 6.5, modulator: ogerin), 3.06. Besides, the surface expression score in data set [2] amounted to 1.74.

Turning to H20L, the cAMP reporter score was -1.03 in data set [1] (pH 5.5); -0.504 in data set [1] (pH 6); -1.2 in data set [1] (pH 6, modulator: ogerin); -1.07 in data set [1] (pH 6.5, modulator: ogerin). Moreover, the surface expression score in data set [2] was determined as 1.34.

With H20S, the cAMP reporter score in data set [1] (pH 5.5) is -0.512; in data set [1] (pH 6) it was -0.208; in data set [1] (pH 6, modulator: ogerin), -0.636; in data set [1] (pH 6.5, modulator: ogerin), -0.841. In data set [2], the surface expression score worked out at 1.

H20Q: the cAMP reporter score is -0.567 in data set [1] (pH 5.5); -0.602 in data set [1] (pH 6); -0.31 in data set [1] (pH 6, modulator: ogerin); -1.38 in data set [1] (pH 6.5, modulator: ogerin). Further, the surface expression score in data set [2] came out at 1.01.

As to H20P, the cAMP reporter score in data set [1] (pH 5.5) is -1.28; in data set [1] (pH 6, modulator: ogerin), -0.614; in data set [1] (pH 6.5, modulator: ogerin), -1.07. Besides, the surface expression score in data set [2] was 0.506.

For the variant H20W, the cAMP reporter score is -0.86 in data set [1] (pH 5.5); -0.353 in data set [1] (pH 6); -1.32 in data set [1] (pH 6, modulator: ogerin); -0.602 in data set [1] (pH 6.5, modulator: ogerin). For the same variant, in data set [2], the surface expression score stood at 2.13.

For the variant H20D, the cAMP reporter score was -1.33 in data set [1] (pH 5.5); -1.62 in data set [1] (pH 6, modulator: ogerin); -1.82 in data set [1] (pH 6.5, modulator: ogerin). Moreover, the surface expression score in data set [2] was -1.11.

In the case of H20A, the cAMP reporter score in data set [1] (pH 5.5) is -0.962; in data set [1] (pH 6), -0.764; in data set [1] (pH 6, modulator: ogerin), -1.43; in data set [1] (pH 6.5, modulator: ogerin) it was -1.28. In data set [2], the surface expression score came out at 1.79.

Regarding H20V, the cAMP reporter score in data set [1] (pH 5.5) is -1.06; in data set [1] (pH 6), -0.359; in data set [1] (pH 6.5, modulator: ogerin), -1.18. In addition, in data set [2], the surface expression score amounted to 2.

For H20G, the cAMP reporter score in data set [1] (pH 5.5) was -1.03; in data set [1] (pH 6), -0.975; in data set [1] (pH 6, modulator: ogerin) it was -0.863; in data set [1] (pH 6.5, modulator: ogerin), -0.859. Besides, the surface expression score in data set [2] worked out at 1.82.

In the case of H20M, the cAMP reporter score in data set [1] (pH 5.5) is -1.06; in data set [1] (pH 6), -0.609; in data set [1] (pH 6, modulator: ogerin) it was -1.26; in data set [1] (pH 6.5, modulator: ogerin), -1.04. For the same variant, the surface expression score in data set [2] was 1.84.

With H20Y, the cAMP reporter score in data set [1] (pH 5.5) is -0.958; in data set [1] (pH 6), -0.316; in data set [1] (pH 6, modulator: ogerin) it was -1.13; in data set [1] (pH 6.5, modulator: ogerin), -0.842. Further, the surface expression score in data set [2] was determined as 1.63.

Consider H20N, for which the cAMP reporter score in data set [1] (pH 5.5) was -0.855; in data set [1] (pH 6), -0.284; in data set [1] (pH 6, modulator: ogerin), -0.972; in data set [1] (pH 6.5, modulator: ogerin) it was -0.929. The surface expression score in data set [2] was -0.58.

As to H20I, the cAMP reporter score in data set [1] (pH 5.5) is -0.853; in data set [1] (pH 6) it was -0.526; in data set [1] (pH 6, modulator: ogerin) it was -1.12; in data set [1] (pH 6.5, modulator: ogerin), -0.923. The surface expression score in data set [2] worked out at 2.34.

As for H20K, the cAMP reporter score is 0.834 in data set [1] (pH 5.5); 2.29 in data set [1] (pH 6); 1.37 in data set [1] (pH 6, modulator: ogerin); 3.38 in data set [1] (pH 6.5, modulator: ogerin). Further, the surface expression score in data set [2] was -0.077.

On to H20C, for which the cAMP reporter score is -1.11 in data set [1] (pH 5.5); -1.28 in data set [1] (pH 6); -1.42 in data set [1] (pH 6, modulator: ogerin); -0.66 in data set [1] (pH 6.5, modulator: ogerin). The surface expression score in data set [2] is -0.145.

Regarding D16_H17insGS, the cAMP reporter score in data set [1] (pH 5.5) was -0.415; in data set [1] (pH 6), -0.132; in data set [1] (pH 6, modulator: ogerin), -0.457; in data set [1] (pH 6.5, modulator: ogerin) it was -0.678. Besides, the surface expression score in data set [2] was -1.22.

For the variant L32_V33del, the cAMP reporter score in data set [1] (pH 5.5) was -1.04; in data set [1] (pH 6), -0.734; in data set [1] (pH 6, modulator: ogerin), -0.068; in data set [1] (pH 6.5, modulator: ogerin) it was -0.51. Moreover, in data set [2], the surface expression score was -2.49.

Regarding P25del, the cAMP reporter score in data set [1] (pH 5.5) was -1.4; in data set [1] (pH 6), -0.4; in data set [1] (pH 6, modulator: ogerin) it was -1.34; in data set [1] (pH 6.5, modulator: ogerin), -0.914. In data set [2], the surface expression score was found to be 1.01.

In the case of D16_H17del, the cAMP reporter score is -1.46 in data set [1] (pH 5.5); -0.796 in data set [1] (pH 6); -1.35 in data set [1] (pH 6, modulator: ogerin); -0.301 in data set [1] (pH 6.5, modulator: ogerin). Further, in data set [2], the surface expression score was 1.13.

Consider H20_Q21del, for which the cAMP reporter score in data set [1] (pH 5.5) was -1.57; in data set [1] (pH 6), -0.475; in data set [1] (pH 6, modulator: ogerin) it was -1.36; in data set [1] (pH 6.5, modulator: ogerin), -1.31. In data set [2], the surface expression score was -0.859.

L32del: the cAMP reporter score is -1.92 in data set [1] (pH 5.5); -1.54 in data set [1] (pH 6, modulator: ogerin); -1.53 in data set [1] (pH 6.5, modulator: ogerin). Further, the surface expression score in data set [2] is -3.5.

For V26_Y28del, the cAMP reporter score in data set [1] (pH 5.5) was -1.49; in data set [1] (pH 6), -0.454; in data set [1] (pH 6, modulator: ogerin), -1.33; in data set [1] (pH 6.5, modulator: ogerin), -0.798. The surface expression score in data set [2] is -2.14.

Consider L23_A24insGS, for which the cAMP reporter score in data set [1] (pH 5.5) was -2.15; in data set [1] (pH 6), -1.66; in data set [1] (pH 6, modulator: ogerin), -2.12; in data set [1] (pH 6.5, modulator: ogerin), -1. For the same variant, in data set [2], the surface expression score is -2.63.

Consider Q21_T22insGSG, for which the cAMP reporter score in data set [1] (pH 5.5) is -1.07; in data set [1] (pH 6), -1.23; in data set [1] (pH 6, modulator: ogerin), -2.25; in data set [1] (pH 6.5, modulator: ogerin) it was -1.08. Besides, in data set [2], the surface expression score is -2.08.
